Experiment [1] deals with myc-PFKFB4 (6-phosphofructo-2-kinase/fructose-2,6-biphosphatase-4) (UniProt Q16877). Description: co-IP; 293T cells transfected with myc-PFKFB4 together with SRC-1, SRC-2 or SRC-3; immunoprecipitation with anti-Myc, western blot for SRC proteins; pCMV6-Myc as negative control. For orientation: Immunoblotting shows a protein as a band on a membrane.
In experiment [2] the target is PFKFB4 in A549 cells (co-IP with overexpressed SRC-2 WT or S487A) (UniProt Q16877). Briefly: co-IP; A549 cells overexpressing SRC-2 WT or SRC-2 S487A; co-IP of PFKFB4, SRC-2 detected.
For experiment [3], the target named is PFKFB4, endogenous in A549 and NCI-H1975 cells (human (endogenous in A549 and NCI-H1975)) (UniProt Q16877). Briefly: co-IP; endogenous immunoprecipitation with anti-PFKFB4 antibody in A549 and NCI-H1975 cells, western blot; IgG as negative control.
For another experiment, the target named is HA-SRC-2 (UniProt Q15596). Briefly: co-IP; 293T cells expressing HA-SRC-2 transfected with empty vector or myc-PFKFB4; immunoprecipitation with anti-HA, western blot for PFKFB4; pCMV6-HA as negative control.

Sequences of proteins named here, by UniProt entry; tags and fusion partners are left off. A change or cut given only in a name is not applied to a line headed by its entry.
UniProt Q16877: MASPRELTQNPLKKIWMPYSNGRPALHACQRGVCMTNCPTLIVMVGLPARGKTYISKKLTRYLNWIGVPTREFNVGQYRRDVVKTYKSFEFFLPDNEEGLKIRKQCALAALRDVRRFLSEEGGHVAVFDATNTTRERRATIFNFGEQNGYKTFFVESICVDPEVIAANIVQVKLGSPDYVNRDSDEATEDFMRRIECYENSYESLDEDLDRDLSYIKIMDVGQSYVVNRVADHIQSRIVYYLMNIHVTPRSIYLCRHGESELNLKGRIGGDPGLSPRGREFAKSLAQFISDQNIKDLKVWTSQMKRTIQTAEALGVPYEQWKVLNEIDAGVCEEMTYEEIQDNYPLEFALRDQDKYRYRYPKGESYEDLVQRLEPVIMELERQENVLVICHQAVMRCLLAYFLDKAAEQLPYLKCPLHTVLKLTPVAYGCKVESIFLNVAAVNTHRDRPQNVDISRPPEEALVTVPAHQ
UniProt Q15596: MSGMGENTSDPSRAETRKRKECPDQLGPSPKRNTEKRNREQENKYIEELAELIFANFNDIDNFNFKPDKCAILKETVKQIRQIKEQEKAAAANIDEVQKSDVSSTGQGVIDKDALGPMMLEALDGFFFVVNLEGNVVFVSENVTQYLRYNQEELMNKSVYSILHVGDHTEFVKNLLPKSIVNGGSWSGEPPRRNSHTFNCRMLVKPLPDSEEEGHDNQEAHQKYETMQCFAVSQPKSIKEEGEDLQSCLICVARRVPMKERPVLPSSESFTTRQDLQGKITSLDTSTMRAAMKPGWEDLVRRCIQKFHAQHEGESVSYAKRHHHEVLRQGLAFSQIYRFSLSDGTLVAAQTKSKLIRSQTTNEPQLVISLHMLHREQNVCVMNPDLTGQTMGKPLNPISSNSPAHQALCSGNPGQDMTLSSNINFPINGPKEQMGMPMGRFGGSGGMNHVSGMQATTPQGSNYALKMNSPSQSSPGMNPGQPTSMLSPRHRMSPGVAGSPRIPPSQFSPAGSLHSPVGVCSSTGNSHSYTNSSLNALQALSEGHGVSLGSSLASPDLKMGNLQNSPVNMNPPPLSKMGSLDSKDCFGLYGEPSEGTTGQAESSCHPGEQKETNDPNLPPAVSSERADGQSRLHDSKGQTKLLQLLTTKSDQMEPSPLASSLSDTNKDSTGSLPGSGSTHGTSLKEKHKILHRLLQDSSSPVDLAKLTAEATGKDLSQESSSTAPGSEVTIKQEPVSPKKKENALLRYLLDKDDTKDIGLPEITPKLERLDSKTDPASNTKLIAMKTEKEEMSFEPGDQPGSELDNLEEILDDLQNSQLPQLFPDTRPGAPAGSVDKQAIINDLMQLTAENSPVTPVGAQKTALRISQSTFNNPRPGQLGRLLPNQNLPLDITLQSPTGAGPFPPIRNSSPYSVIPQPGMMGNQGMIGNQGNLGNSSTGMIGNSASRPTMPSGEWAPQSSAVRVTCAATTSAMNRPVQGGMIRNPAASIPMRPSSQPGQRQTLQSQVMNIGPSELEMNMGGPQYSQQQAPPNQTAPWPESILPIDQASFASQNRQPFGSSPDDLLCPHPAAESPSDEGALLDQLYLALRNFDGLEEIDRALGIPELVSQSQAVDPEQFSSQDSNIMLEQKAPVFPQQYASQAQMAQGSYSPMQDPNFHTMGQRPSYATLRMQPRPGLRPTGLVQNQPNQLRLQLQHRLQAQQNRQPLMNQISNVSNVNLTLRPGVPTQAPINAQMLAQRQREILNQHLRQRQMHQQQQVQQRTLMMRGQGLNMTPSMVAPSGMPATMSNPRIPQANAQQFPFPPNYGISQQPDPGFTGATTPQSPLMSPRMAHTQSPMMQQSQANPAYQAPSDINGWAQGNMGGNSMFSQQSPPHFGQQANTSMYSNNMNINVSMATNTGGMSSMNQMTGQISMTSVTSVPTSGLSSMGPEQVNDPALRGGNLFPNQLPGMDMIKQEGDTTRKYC
UniProt Q15788: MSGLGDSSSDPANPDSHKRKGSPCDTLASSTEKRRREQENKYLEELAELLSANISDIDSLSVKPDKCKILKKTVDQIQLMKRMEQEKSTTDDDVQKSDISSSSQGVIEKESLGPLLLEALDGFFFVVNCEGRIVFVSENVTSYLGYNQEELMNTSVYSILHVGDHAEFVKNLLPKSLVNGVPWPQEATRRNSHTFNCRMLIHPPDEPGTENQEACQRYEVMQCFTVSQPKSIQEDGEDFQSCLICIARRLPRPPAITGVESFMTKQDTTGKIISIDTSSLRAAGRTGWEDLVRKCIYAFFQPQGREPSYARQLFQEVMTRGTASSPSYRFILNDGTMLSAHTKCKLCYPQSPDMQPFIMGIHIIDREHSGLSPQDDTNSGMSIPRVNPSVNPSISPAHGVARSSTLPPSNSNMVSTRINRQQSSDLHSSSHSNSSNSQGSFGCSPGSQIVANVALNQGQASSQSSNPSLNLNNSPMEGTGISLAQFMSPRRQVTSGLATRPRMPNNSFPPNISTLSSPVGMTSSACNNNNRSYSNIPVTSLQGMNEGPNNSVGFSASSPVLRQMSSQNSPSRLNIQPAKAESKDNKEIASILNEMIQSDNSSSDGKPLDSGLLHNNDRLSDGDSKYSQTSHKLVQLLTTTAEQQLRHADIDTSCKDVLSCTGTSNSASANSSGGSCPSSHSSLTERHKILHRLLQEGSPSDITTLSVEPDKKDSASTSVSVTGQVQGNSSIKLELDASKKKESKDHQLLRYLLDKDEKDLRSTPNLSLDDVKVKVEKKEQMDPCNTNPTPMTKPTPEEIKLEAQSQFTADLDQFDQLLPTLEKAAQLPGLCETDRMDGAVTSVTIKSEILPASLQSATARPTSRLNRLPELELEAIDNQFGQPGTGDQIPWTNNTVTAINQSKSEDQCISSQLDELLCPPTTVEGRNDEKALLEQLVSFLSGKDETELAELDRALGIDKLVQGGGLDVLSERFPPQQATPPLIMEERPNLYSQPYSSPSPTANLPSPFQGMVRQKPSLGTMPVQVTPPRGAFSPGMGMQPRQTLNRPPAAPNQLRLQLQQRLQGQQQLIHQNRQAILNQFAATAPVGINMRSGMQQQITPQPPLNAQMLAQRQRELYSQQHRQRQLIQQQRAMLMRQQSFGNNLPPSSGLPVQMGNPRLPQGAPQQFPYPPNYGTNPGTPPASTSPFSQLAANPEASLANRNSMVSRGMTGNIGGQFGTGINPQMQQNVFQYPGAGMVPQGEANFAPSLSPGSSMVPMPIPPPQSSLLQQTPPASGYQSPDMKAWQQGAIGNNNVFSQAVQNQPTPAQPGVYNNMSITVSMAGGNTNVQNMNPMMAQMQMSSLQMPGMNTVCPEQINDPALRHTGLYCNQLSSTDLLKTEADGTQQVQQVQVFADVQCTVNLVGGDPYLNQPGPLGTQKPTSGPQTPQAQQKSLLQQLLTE

Consider seven substances from paper PMC7887818.

No constants are given. Whether binding was seen depends on the method and setting. In cells and extracts the contact can be indirect. Some binding calls cover weakened binding; strength is not graded here.

SRC-1 (from UniProt Q15788 1-1441): the binding entry in experiment [1] is “no binding”.

“SRC-2 (steroid receptor coactivator-2), co-transfected with myc-PFKFB4 in 293T cells (from UniProt Q15596 1-1464)”: the binding result in experiment [1] was “binds”.

With “SRC-2 S487A, phosphor-deficient SRC-2 mutant, overexpressed in A549 cells (from UniProt Q15596 1-1464)”, in experiment [2], the binding result is on record as “binds”. “SRC-2 WT overexpressed in A549 cells (from UniProt Q15596 1-1464)”: in experiment [2], the binding entry is given as “binds”. With “SRC-2 phosphorylated at Ser487, endogenous in A549 and NCI-H1975 cells (from UniProt Q15596 1-1464)”, the binding result in experiment [3] is on record as “binds”. The same measure, in the same setting: next, “SRC-2, endogenous in A549 and NCI-H1975 cells (from UniProt Q15596 1-1464)”: “binds”.

On to “myc-PFKFB4 (6-phosphofructo-2-kinase/fructose-2,6-biphosphatase-4) (from UniProt Q16877 1-469) (enzyme)”, for which, in the experiment with HA-SRC-2, the binding entry was “binds”.
